In PubChem BioAssay (NCATS):
Where “and” joins values, the source holds several entries; their conditions need not be identical. Equal values may be shown once. The shares of active, inactive and inconclusive entries below differ from those in the screen. For some of these results: Where the call is inconclusive, the potency comes from a doubtful curve fit. Calls of active or inactive are those of the source. Calls follow the shape of the dose curve; as a rule, active = well fitted curve in the direction sought with a large enough effect; inconclusive = small, poorly fitted or top-dose-only effect, or another doubt; inactive = no such curve, though single readings can be large; an effect the other way counts as inactive or inconclusive.

Key:
[1] = Viability qHTS for spleen associated tyrosine kinase inhibitor (SYKi) naive MV4-11 cells (AID 1963823); details: MV4-11 AML viability, CellTiter-Glo luminescence, 72 h; viability (% of control): at 45 µM (top of the series); also: nearly all actives have a fitted effect of over 40% in size; also: potency is read from the fitted curve at half-maximal effect
How it was run: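 SYKi-naive MV4-11 AML cells, 500 per well, were exposed to library compounds for 72 hr at 37 C, 5% CO2. Viability was then read by CellTiter-Glo luminescence after 10 min at room temperature.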

[2] = Quantitative highthroughput screen to assess conditional lethalithy of P12 Ichikawa cells grown in RPMI1640 with untreated serum (RPMI+s) (AID 1963881); details: Potency: viability;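 also: 100% = DMSO wells and 0% = empty wells without cells; nearly all actives have a fitted effect of over 35% in size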
How it was run: (§1)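 Each medium arm—HPLM with 10% dialyzed FBS, or RPMI1640 with 5 mM glucose and 10% untreated or dialyzed FBS—was screened against an 11-point, 3-fold compound titration for 48 h at 37 °C, with CellTiter-Glo luminescence as endpoint.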

[3] = Quantitative highthroughput screen to assess conditional lethalithy of SEM cells grown in Human Plasma-Like Medium with dialyzed fetal bovine serum (HPLM+ds) (AID 1963882); also: nearly all actives have a fitted effect of over 35% in size; also: potency is read from the fitted curve at half-maximal effect
How it was run: as §1

[4] = Quantitative highthroughput screen to assess conditional lethalithy of SEM cells grown in RPMI1640 with dialyzed fetal bovine serum (RPMI+ds) (AID 1963884); details: SEM B-ALL cells, RPMI+dialyzed FBS, CellTiter-Glo viability, 48 h; viability: at 45.8 µM (top of the series); also: nearly all actives have a fitted effect of over 35% in size; also: potency is read from the fitted curve at half-maximal effect;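 as to Viability: 100% = DMSO control wells and 0% = empty wells without cells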
How it was run: as §1

[5] = Quantitative highthroughput screen to assess conditional lethalithy of P12 Ichikawa cells grown in RPMI1640 with dialyzed fetal bovine serum (RPMI+ds) (AID 1963880); details: Potency: P12-Ichikawa viability;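 also: 100% = DMSO wells and 0% = empty wells on each plate; nearly all actives have a fitted effect of over 35% in size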
How it was run: as §1

[6] = Quantitative highthroughput screen to assess conditional lethalithy of SEM cells grown in RPMI1640 with unreated serum (RPMI+s) (AID 1963883); details: SEM B-ALL cells, CellTiter-Glo viability, 48 h; viability: at 45.8 µM (top of the series); also: nearly all actives have a fitted effect of over 35% in size; also: potency is read from the fitted curve at half-maximal effect;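 as to Viability: 100% = DMSO wells and 0% = empty wells without cells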
How it was run: as §1

[7] = Cellular viability qHTS for adrenocortical cancer (ACC) cell line NCI-H295R (AID 1963990); details: CellTiter-Glo ATP luminescence, 48 h; activity change, negative = viability loss: at 46.1 µM (top of the series); also: nearly all actives have a fitted effect of over 60% in size; also: potency is read from the fitted curve at half-maximal effect;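 as to activity change, negative = viability loss: 0% = DMSO only wells and -100% = full killing with cytotoxic reference compound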
How it was run: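 Readout: CellTiter-Glo luminescence, 20 min RT. Exposure: 48 h, 37C/5% CO2. Cells: NCI-H295R, ITS-DMEM serum-free. Range: up to 46 uM. Analysis: 4PL fit, IC50 plus efficacy.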

[8] = Cellular viability qHTS for adrenocortical cancer (ACC) cell line SW-13 (AID 1963989); details: SW-13 ACC cells viability, CellTiter-Glo, 48 h; activity (max response): stronger effect = lower value; also: nearly all actives have a fitted effect of over 65% in size; also: potency is read from the fitted curve at half-maximal effect;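 as to activity (max response): cells grown in serum-free medium with ITS supplement; % is scaled to controls: 0 for no effect and ±100 for the full control effect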
How it was run: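 Compound titrations (up to 46 uM final, in DMSO) were applied to SW-13 cells for 48 h at 37C/5% CO2. Reading used CellTiter-Glo after 20 min at room temperature; fitted curves yielded IC50 and efficacy.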
Tags tell the direction and shape of the fitted curve.

In the case of `Nc1nc(N)nc(-c2cc(Cl)ccc2Cl)n1`, the Potency [1] is reported as “inactive”, the Potency [2] is reported as “inactive” and the Potency [3] is reported as inconclusive: 23.5 µM [cytotoxic, partial curve, poor fit]. The Potency [4] was “inactive”.
With `COc1ccc(CC2SC(=O)NC2=O)cc1C(=O)NCc1ccc(C(F)(F)F)cc1` (stereo unspecified) the Potency [1] was inconclusive: 16.6 µM [cytotoxic, partial curve], the Potency [5] was “inactive” and the Potency [3] was inconclusive: 23.5 µM [cytotoxic, single point]. For the same compound, the Potency [6] was inconclusive: 23.5 µM [cytotoxic, single point], the Potency [4] was inconclusive: 2.96 µM [cytotoxic, full curve, poor fit] and the Potency [7] was inconclusive: 17.8 µM [cytotoxic, partial curve, poor fit].
With `COc1ccc2c(c1)c(CC(=O)OCC(=O)O)c(C)n2C(=O)c1ccc(Cl)cc1` the Potency [1] was “inactive”, the Potency [3] was “inactive” and the Potency [6] was “inactive”.
In the case of `COC(=O)C1=C(C)NC(C)=C(C(=O)OCC(C)C)C1c1ccccc1[N+](=O)[O-]` (stereo unspecified), the Potency [1] is reported as active: 10.6 µM and the Potency [8] is reported as inconclusive: 23.1 µM [cytotoxic, single point].
With `O=C(O)c1cc(O)c2c(c1)C(=O)c1cccc(O)c1C2=O` the Potency [1] was inconclusive: 23.5 µM [cytotoxic, partial curve], the Potency [3] was “inactive” and the Potency [4] was “inactive”.
In the case of `Oc1ccc(CCNCCCCCCNCCc2ccccc2)cc1O`, the Potency [1] is reported as active: 26.6 µM and the Potency [8] is reported as inconclusive: 16.4 µM [cytotoxic, single point].
For `Cc1cccc(CN2CCN(C(c3ccccc3)c3ccc(Cl)cc3)CC2)c1` (stereo unspecified), the Potency [1] was inconclusive: 21.1 µM [cytotoxic, partial curve] and active: 20.9 µM, the Potency [2] was “inactive” and the Potency [3] was “inactive”. The Potency [6] was “inactive”.
With `CN(C)C1CCN(C(=O)c2ccc(NC(=O)Nc3ccc(-c4nc(N5CCOCC5)nc(N5CCOCC5)n4)cc3)cc2)CC1` the Potency [1] was active: 0.0146 µM and the Potency [8] was active: 0.251 µM.
With `CN(C)c1ccc(O)c2c1C[C@H]1C[C@H]3[C@H](N(C)C)C(=O)C(C(N)=O)=C(O)[C@@]3(O)C(=O)C1=C2O` the Potency [1] was inconclusive: 13.3 µM [cytotoxic, partial curve] and the activity (max response) [8] was inactive: -4.3% and inactive: 1.01%.
With `CNC(=O)c1ccc2cc(C3(O)CCn4cncc43)ccc2c1` (stereo unspecified) the Potency [1] was “inactive” and the Potency [5] was “inactive”.
For `CS(=O)(=O)c1ccc(-c2nnc(/C=C/c3nnc(-c4ccc(C#N)cc4)o3)n2-c2ccccc2Cl)nc1`, the Potency [1] was inconclusive: 14.8 µM [cytotoxic, partial curve] and the activity (max response) [8] was inactive: -6.81%.
In the case of `O=C1c2cccc(O)c2C(=O)c2c(O)cc(CO)cc21`, the Potency [1] is reported as active: 8.33 µM, the Potency [6] is reported as “inactive” and the activity (max response) [8] is reported as inactive: 13.5%. The Potency [7] was “inactive”.
In the case of `CCN(CC)CC(=O)Oc1ccc(NC(C)=O)cc1`, the Potency [1] is reported as inconclusive: 0.119 µM [rising, full curve, poor fit] and the activity (max response) [8] is reported as inactive: 13.2%.
With `CCN1CCN(Cc2ccc(NC(=O)c3ccc(C)c(/C=C/c4cnc5[nH]ccc5c4OC)c3)cc2C(F)(F)F)CC1` the Potency [1] was inconclusive: 16.4 nM [cytotoxic, full curve] and inconclusive: 52.5 nM [cytotoxic, full curve] and the Potency [8] was active: 3.16 µM.
In the case of `COc1cc(NS(=O)(=O)c2ccc(N)cc2)ncn1`, the Potency [1] is reported as “inactive” and the Potency [8] is reported as inconclusive: 23.1 µM [cytotoxic, single point].
For `Cc1ccc2c(Br)cc(Br)c(O)c2n1`, the Potency [1] was active: 16.8 µM and the Potency [8] was inconclusive: 4.11 µM [cytotoxic, full curve].
In the case of `O=C(CCC1CCN(Cc2ccccc2)CC1)c1ccc2c(c1)NCCCC2`, the Potency [1] is reported as active: 23.1 µM and the Potency [8] is reported as inconclusive: 20.6 µM [cytotoxic, single point].
With `COc1cc2c(Oc3ccc4[nH]c(C)cc4c3F)ccnc2cc1OCC1(N)CC1` the Potency [1] was active: 4.17 µM and the Potency [8] was active: 11.2 µM.
For `O=C(NOCC(O)CO)c1ccc(F)c(F)c1Nc1ccc(I)cc1F` (stereo unspecified), the Potency [1] was inconclusive: 0.0731 µM [cytotoxic, full curve] and the Potency [8] was inconclusive: 5.01 µM [cytotoxic, partial curve].
With `C/C=C1\NC(=O)[C@H]2CSSCC/C=C\[C@H](CC(=O)N[C@H](C(C)C)C(=O)N2)OC(=O)[C@H](C(C)C)NC1=O` the Potency [1] was inconclusive: 0.0093 µM [cytotoxic, full curve] and the Potency [8] was active: 0.0126 µM.
In the case of `C[C@@H]1COCCN1c1cc(-c2ccnn2C)c2ccnc(-c3ccn[nH]3)c2n1`, the Potency [1] is reported as inconclusive: 0.0934 µM [cytotoxic, full curve] and the Potency [8] is reported as inconclusive: 2.24 µM [cytotoxic, full curve].
For `O=C1Nc2nc(-c3c(O)cccc3OCC3CC3)cc([C@@H]3CCCNC3)c2CO1`, the Potency [1] was active: 2.91 µM and inconclusive: 5.25 µM [cytotoxic, full curve, poor fit] and the Potency [8] was active: 22.4 µM.
In the case of `Cc1c(CN2CCC(Nc3ncnc4sc(CC(F)(F)F)cc34)CC2)ccc2c1cc(C#N)n2Cc1cn[nH]c1`, the Potency [1] is reported as active: 0.525 µM and the Potency [8] is reported as active: 4.47 µM.
With `Cc1cc(I)ccc1Nc1c(C(=O)NOCC2CC2)cc(F)c(F)c1F` the Potency [1] was active: 2.31 µM and the Potency [8] was active: 3.16 µM.
With `C=CCn1c(=O)n([C@@H]2O[C@H](CO)[C@@H](O)[C@H]2O)c2nc(N)[nH]c(=O)c21` the Potency [1] was “inactive” and the activity (max response) [8] was inactive: 10.8%.
In the case of `Cc1cc2cc(Oc3ccnc(Nc4cccc(CS(=O)(=O)NCCN(C)C)c4)n3)ccc2[nH]1`, the Potency [1] is reported as inconclusive: 0.742 µM [cytotoxic, full curve] and the Potency [8] is reported as inconclusive: 31.6 µM [cytotoxic, single point].
With `CC(=O)Oc1ccc2c(c1)CC[C@@H]1[C@@H]2CC[C@]2(C)[C@@H](O)CC[C@@H]12` the Potency [1] was inconclusive: 23.7 µM [cytotoxic, partial curve] and the Potency [8] was inconclusive: 18.4 µM [cytotoxic, partial curve].
In the case of `C=C1C(=O)O[C@@H]2[C@H]3C(C)=CC[C@@]34O[C@@]4(C)CC[C@@H]12`, the Potency [1] is reported as active: 3.32 µM and the Potency [8] is reported as inconclusive: 28.2 µM [cytotoxic, single point].
In the case of `OCCN1CCN(CCCN2c3ccccc3Sc3ccc(Cl)cc32)CC1`, the Potency [1] is reported as active: 11.9 µM and the Potency [8] is reported as active: 6.51 µM.
For `Oc1ccc(O)cc1`, the Potency [1] was active: 11.9 µM and the Potency [8] was inconclusive: 18.4 µM [cytotoxic, single point].
For `CNC(=O)[C@@H](NC(=O)[C@H](CC(C)C)[C@H](O)C(=O)NO)C(C)(C)C`, the Potency [1] was active: 13.2 µM and the Potency [8] was inconclusive: 35.5 µM [cytotoxic, single point].
With `CC(C)(CNC(=O)c1cccc(-c2noc(C(F)(F)F)n2)c1)c1coc(-c2ccccc2)n1` the Potency [1] was inconclusive: 16.4 µM [cytotoxic, partial curve] and the Potency [8] was inconclusive: 25.1 µM [cytotoxic, single point].
With `CC(=O)OCC(=O)Nc1cc(C#N)cc(NC(=O)COC(C)=O)c1Cl` the Potency [1] was “inactive” and the activity (max response) [8] was inactive: -0.531%.
In the case of `O=C(NO)c1ccc(C2=Nc3ccccc3Oc3ccccc32)cc1`, the Potency [1] is reported as active: 3.32 µM and the Potency [8] is reported as active: 22.4 µM.
With `OCc1c[nH]c2ccccc12` the Potency [1] was inconclusive: 17.2 µM [cytotoxic, partial curve] and the Potency [8] was inconclusive: 28.2 µM [cytotoxic, partial curve].
With `CCCOC(=O)c1ccc(O)cc1` the Potency [1] was inconclusive: 24.3 µM [cytotoxic, partial curve] and the Potency [8] was inconclusive: 44.7 µM [cytotoxic, partial curve, poor fit].
In the case of `CO/N=C(/C(=O)N[C@@H]1C(=O)N2C(C(=O)[O-])=C(C[n+]3ccn4ncccc43)CS[C@H]12)c1nsc(N)n1`, the Potency [1] is reported as “inactive” and the activity (max response) [8] is reported as inactive: -7.2%.
For `CO/N=C(/C(=O)N[C@@H]1C(=O)N2C(C(=O)OCOC(=O)C(C)(C)C)=C(C)CS[C@H]12)c1csc(N)n1`, the Potency [1] was inconclusive: 16.8 µM [cytotoxic, partial curve] and the Potency [8] was inconclusive: 29.1 µM [cytotoxic, single point].
In the case of `CCc1cc2cc(OC)c(OC)cc2c(Cc2ccccc2)n1`, the Potency [1] is reported as inconclusive: 10.6 µM [cytotoxic, partial curve] and the activity (max response) [8] is reported as inactive: -5.12%.
In the case of `Cc1ccc(S(=O)(=O)Cc2nc(-c3ccc(C(=O)NCc4cccnc4)cc3)oc2C)cc1`, the Potency [1] is reported as active: 0.0118 µM and the Potency [8] is reported as active: 0.199 µM.
For `COC(=O)C1=C(C)NC(C)=C(C(=O)OC)C1c1ccccc1[N+](=O)[O-]`, the Potency [1] was active: 13.3 µM and the Potency [8] was inconclusive: 25.9 µM [cytotoxic, single point].
In the case of `CN1Cc2c(N)cccc2C(c2ccccc2)C1` (stereo unspecified), the Potency [1] is reported as inconclusive: 1.06 µM [cytotoxic, full curve, poor fit] and the activity (max response) [8] is reported as inactive: -0.946%.
With `CC[C@]12CCCN3CCc4c(n(c5ccccc45)C(=O)C1)[C@@H]32` the Potency [1] was inconclusive: 11.9 µM [cytotoxic, partial curve, poor fit] and inconclusive: 18.4 µM [cytotoxic, single point] and the Potency [8] was inconclusive: 4.61 µM [cytotoxic, full curve].
For `CCNC(=O)Nc1ccc(-c2nc3c(c(N4CCOC[C@@H]4C)n2)CCN(C2COC2)C3)cc1`, the Potency [1] was active: 0.934 µM and the Potency [8] was inconclusive: 4.47 µM [cytotoxic, partial curve].
With `CC(C)(C)NCC(O)COc1cccc2c1C[C@H](O)[C@H](O)C2` (stereo partly specified) the Potency [1] was “inactive” and the activity (max response) [8] was inactive: 9.63%.
For `N#C/C(=C\c1ccc(O)c(O)c1)C(=O)NCc1ccccc1`, the Potency [1] was inconclusive: 8.2 µM [cytotoxic, partial curve] and the Potency [8] was inconclusive: 25.1 µM [cytotoxic, single point].
In the case of `CC1(C)CC[C@]2(C(=O)O)CC[C@]3(C)C(=CC[C@@H]4[C@@]5(C)C[C@@H](O)[C@H](O)C(C)(C)[C@@H]5CC[C@]43C)[C@@H]2C1`, the Potency [1] is reported as inconclusive: 20.9 µM [cytotoxic, partial curve] and the activity (max response) [8] is reported as inactive: -1.16%.
